# From PubChem BioAssay AID1345082 (National Center for Advancing Translational Sciences (NCATS), 2018)
# Screen size: about 94,000 compounds; about 4,000 (4.3%) were called active. Inconclusive means that the source gave no clear call. Such entries were picked first, then a sample of the others. The call rests on the fitted dose curve; in most records, active means well fitted inhibition curve with a large enough effect; inconclusive means small, poorly fitted or top-dose-only effect; inactive means no such curve, though single readings can be large or run the other way. Potencies beside an inconclusive call are fits to weak or partial responses and may not hold up.
# Experiment: Cytotoxic Profiling in NIH 3T3 Cell Line of Diverse Libraries Using Quantitative High-Throughput Screening; further: nearly all actives have a fitted effect of over 55% in size
# Details: NIH 3T3 viability, CellTiter-Glo ATP luminescence, 48-72 h; series mostly up to 96.7 µM
# How it was run: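 Cells were seeded at 400 per well, treated with pin-transferred compound, and kept 48 or 72 hr at 37 °C before CellTiter-Glo addition and luminescence imaging of cellular ATP.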
# Potency means the concentration at half of the fitted maximal effect; tags describe the fitted curve by direction and shape.
row,Compound,Potency
1,COc1ccc2c(c1)c(CN1CCc3nn(C)c(=O)n3CC1)cn2C,"inconclusive: 11.2 µM [inhibitor, full curve, poor fit]"
2,COc1ccc(S(=O)(=O)N2CCc3c(C(=O)NCCN(C)C)cccc32)cc1,"inconclusive: 44.7 µM [inhibitor, partial curve, poor fit]"
3,O=C(N[C@@H]1CN(Cc2ccccc2)C[C@H]1CO)c1ccc(=O)[nH]c1,inactive
4,CN(C)[C@H]1C[C@@H](Cc2cc(COc3ccccc3)on2)C1(C)C,"inconclusive: 89.1 µM [inhibitor, partial curve]"
5,CCCCCC(=O)N1C[C@@H](CO)[C@@H]2Oc3c(F)cccc3[C@@H]21,"inconclusive: 44.7 µM [inhibitor, partial curve, poor fit]"
6,C=CCNC(=O)O[C@@H]1CC[C@]2(C)C(CC[C@@H](O)[C@H]2CC(=O)NCc2ccc3c(c2)OCO3)[C@]1(C)CO (stereo not given in full),"inconclusive: 89.1 µM [inhibitor, single point]"
7,O=C(NCc1cccc(C(F)(F)F)c1)c1cn2cc(-c3cccc(C(F)(F)F)c3)sc2n1,inactive
8,Cc1ccc(S(=O)(=O)N(C)Cc2ccc(F)cc2)cc1,"inconclusive: 112 µM [inhibitor, single point]"
9,Cn1nc(-c2nncn2CC2CC2)c2c1CCN(C(=O)c1cn[nH]c1-c1ccccc1)C2,inactive
10,O=C(CC1CCCN(c2cnn(CC3CC3)c(=O)c2)C1)NCc1ccccn1 (stereo not given),"inconclusive: 44.7 µM [inhibitor, partial curve, poor fit]"
11,CC1=C(C(=O)Nc2ccccc2)C(c2ccc(F)cc2)N2C(CC(=O)NCC(C)C)=CSC2=N1 (stereo not given),"inconclusive: 50.1 µM [inhibitor, partial curve, poor fit]"
12,O=C(CCCc1ccccc1)N1CCCC(Cc2nc(C3CCOCC3)no2)C1 (stereo not given),"inconclusive: 39.8 µM [inhibitor, partial curve, poor fit]"
13,Cc1cccc(-c2nc(Cn3c(-c4ccc(F)cc4)nc(C)c(CCO)c3=O)c(C)o2)c1,inactive
14,Cc1cc2nc3n(c(=O)c2n1CC(=O)Nc1cccc(Cl)c1)CCCCC3,"inconclusive: 44.7 µM [inhibitor, partial curve, poor fit]"
15,Cc1ccc(C)c(CN2CCc3nc(N(C)Cc4cccnc4)[nH]c(=O)c3CC2)c1,"inconclusive: 35.5 µM [inhibitor, partial curve, poor fit]"
16,Cc1ccc(C(=O)N2CC(Oc3ccc(F)c(C)c3)C2)cc1,"inconclusive: 63.1 µM [inhibitor, partial curve, poor fit]"
17,O=C1NCCCCCCN(Cc2cccc(F)c2)[C@H]2C[C@H](C(=O)N3CCc4ccccc4C3)C[C@@H]12,active: 39.8 µM
18,COc1ccccc1Nc1ccnc(N2CCN(C(=O)c3ccccc3Cl)CC2)n1,active: 39.8 µM
19,O=C(Nc1c(F)cccc1F)N1CCOc2ccc(CN3CCc4ccccc4C3)cc2C1,"inconclusive: 35.5 µM [inhibitor, partial curve, poor fit]"
20,Cc1cccc(C(=O)N2CCC3(CC2)CC2C(=O)NCCN2C3)c1 (stereo not given),inactive

row,Compound,Potency
1,CCCCC1CCCN1C(=O)c1coc(COc2cccc(F)c2F)n1 (stereo not given),"inconclusive: 50.1 µM [inhibitor, partial curve, poor fit]"
2,COc1cccc(NCc2nnc(C(=O)N3CCC[C@@H]3C(c3ccccc3)c3ccccc3)n2-c2cccnc2)c1,"inconclusive: 70.8 µM [inhibitor, single point]"
3,CC(C)CC(=O)N1CCCCCC1CN1CCC(C)CC1 (stereo not given),"inconclusive: 50.1 µM [inhibitor, partial curve, poor fit]"
4,CNC(=O)C1c2c(OC)ccc3c2C(=CC(C)(C)CO3)CN1Cc1ccccc1 (stereo not given),"inconclusive: 50.1 µM [inhibitor, partial curve, poor fit]"
5,CN(CCc1ccccn1)C(=O)c1ccc(N2CC3CC(C2)[C@H]2CCCC(=O)N2C3)nc1 (stereo not given in full),inactive
6,O=C(c1cc(-c2ccccc2)n[nH]1)N1CCC(N2CC3CC(C2)[C@H]2CCCC(=O)N2C3)CC1 (stereo not given in full),inactive
7,O=C(c1ccc(F)cc1)N1CCC(c2nn(-c3ccccn3)c(=O)[nH]2)CC1,inactive
8,COc1ccccc1-c1ccc(CN2CCC(NC(=O)c3ccccc3)C2)cc1 (stereo not given),"inconclusive: 50.1 µM [inhibitor, partial curve, poor fit]"
9,COc1ccc(N2CCN(C(=O)c3c(-c4cccnc4)cc(=O)n4c3CCCC4)CC2)cc1,inactive
10,Cc1ccc2[nH]c(=O)cc(C(=O)N3CCOC(CCCC(C)C)C3)c2c1 (stereo not given),inactive
11,O=C(NCCCN1CCCC1)c1ccc(-c2ccc(N3CCCCC3)nc2)cc1,"inconclusive: 44.7 µM [inhibitor, partial curve, poor fit]"
12,CNC(=O)c1cc(-c2ccc(O)c(F)c2)cc2c1OCCN2Cc1cccnc1,"inconclusive: 50.1 µM [inhibitor, partial curve, poor fit]"
13,O=C(Cc1c[nH]c2ncc(-c3cccc(OC(F)(F)F)c3)cc12)NCc1cccnc1,active: 44.7 µM
14,Cc1noc(C)c1C(=O)N1CCCC(CCc2ccc(F)cc2F)C1 (stereo not given),"inconclusive: 22.4 µM [inhibitor, full curve, poor fit]"
15,N#Cc1cccc(C(=O)N2CCCCCCNC(=O)[C@@H]3C[C@@H](c4nc(-c5cnccn5)no4)C[C@@H]32)c1,inactive
16,COc1ccc(-c2cn3cc(C(=O)NCc4cccnc4)nc3s2)cc1,"inconclusive: 12.6 µM [inhibitor, full curve, poor fit]"
17,CCOC(=O)[C@H]1C[C@]2(CCCCN(C)C2=O)N(C(=O)c2ccccc2)[C@H]1c1ccco1,"inconclusive: 50.1 µM [inhibitor, partial curve, poor fit]"
18,CCn1cnnc1CC1CCCN(C(=O)NCc2ccccc2)C1 (stereo not given),inactive
19,COc1ccc(C(=O)Nc2ccc(-c3noc([C@@H]4CCCN4CCCc4ccccc4)n3)cn2)cc1,"inconclusive: 39.8 µM [inhibitor, full curve, poor fit]"
20,COCCNC(=O)c1cc(-c2cnn(Cc3ccccc3)c2)cc2ncn(C)c12,"inconclusive: 56.2 µM [inhibitor, partial curve, poor fit]"
